In all, about 91,000 compounds went through this assay and about 130 (0.14%) were called active. The inconclusive results got no clear call from the source; some entries with a clear call stand among them for comparison. Calls come from the whole dose curve; as a rule, active = well fitted inhibition curve with a large enough effect; inconclusive = small, poorly fitted or top-dose-only effect; inactive = flat fitted curve, though single readings scatter. Potencies beside an inconclusive call are fits to weak or partial responses and may not hold up.
These molecules were tested on Uracil-DNA glycosylase (assay: Primary qHTS assay for inhibitors of Activation Induced Cytidine Deaminase (AID): UDG Counterscreen signal). Details: FRET deamination/UDG coupled assay, UDG read, 4 h; series mostly up to 115 µM.
With `COc1ccc(/C=C(/C#N)C(=O)c2c(Cl)cccc2Cl)cc1` the Potency was “inactive”.
`COc1cccc2c1ncc1c(-c3ccc(C)cc3)nn(-c3cccc([N+](=O)[O-])c3)c12` was tested, and the Potency was inconclusive: 89.1 µM [inhibitor, partial curve].
With `Cc1ccc(C2CCN(C(=O)c3cnn(-c4cccc(Cl)c4)c3C3CCN(C(=O)OC(C)(C)C)CC3)C2)cc1` (configuration not stated) the Potency was “inactive”.
With `O=C(NCCc1ccccc1)c1ccc2c(c1)N(Cc1ccc(F)cc1)C(=O)c1ccccc1S2(=O)=O` the Potency was inconclusive: 79.4 µM [inhibitor, partial curve, poor fit].
For `Cc1cccc(N(CC(O)Cn2c3ccccc3c3ccccc32)S(=O)(=O)c2ccc(F)cc2)c1` (configuration not stated), the Potency was inconclusive: 28.2 µM [inhibitor, partial curve, poor fit].
In the case of `O=C(CCS(=O)(=O)c1cccc2nonc12)Nc1c(F)cccc1F`, the Potency is reported as inconclusive: 89.1 µM [inhibitor, partial curve, poor fit].
With `COc1ccc(Br)c(C(=O)Nc2cc3c(cc2N2CCOCC2)n(C)c(=O)n3C)c1` the Potency was inconclusive: 100 µM [inhibitor, single point].
With `COc1cccc(N2CCN(C(=O)c3cccc(-n4c(C)nc5cccnc54)c3)CC2)c1` the Potency was inconclusive: 89.1 µM [inhibitor, single point].
With `COc1ccc(CCn2c(=O)c3cccnc3n(CC(=O)Nc3ccc(C)c(F)c3)c2=O)cc1OC` the Potency was inconclusive: 89.1 µM [inhibitor, single point].
For `FC(F)(F)c1ccccc1/C=N/Nc1ccc(Cl)c(Cl)c1`, the Potency was “inactive”.
In the case of `CN1C(=O)Cc2cc(S(=O)(=O)N3CCN(c4ccc(Cl)cc4)CC3)ccc21`, the Potency is reported as inconclusive: 44.7 µM [inhibitor, partial curve].
With `O=C(COc1ccccc1)NCCc1csc(-c2ccc(Cl)cc2)n1` the Potency was “inactive”.
`Cc1ccccc1-c1nn2c(=O)cc(CN3CCN(C(=O)/C=C/c4ccccc4)CC3)nc2s1` was tested, and the Potency was inconclusive: 89.1 µM [inhibitor, partial curve, poor fit].
`Oc1cccc2c(N=Cc3ccc(F)c(F)c3)cccc12` was tested, and the Potency was “inactive”.
With `Cc1ccc(NC(=O)Cn2c(=O)n(CCC(C)C)c(=O)c3cccnc32)cc1C` the Potency was inconclusive: 89.1 µM [inhibitor, single point].
`CCOC(=O)c1c(C)[nH]c(C)c1S(=O)(=O)N1CCCC(C(=O)N2CCN(c3cccc(Cl)c3)CC2)C1` (configuration not stated) was tested, and the Potency was inconclusive: 89.1 µM [inhibitor, partial curve, poor fit].
For `CCN(CC)CCNC(=O)c1cc2c(-c3cccc(OC)c3)nn(C)c2s1`, the Potency was inconclusive: 100 µM [inhibitor, single point].
Note: nearly all actives have a fitted effect of over 65% in size.
Potency is the fitted concentration of half-maximal effect; tags give direction and shape of the fitted curve.
